Experimental data: the supplement of paper PMC11741623
The list shows a part of the results. Interaction screen of human proteins with wild-type SARS-CoV-2 proteins by split-DHFR complementation in yeast, 1 µg/mL methotrexate. Value = fitness of the pair (three or more lineages) minus that of the viral protein without a human partner, on a scale set by negative (0) and fused positive (1) controls, mean of up to three cultures; higher = more likely to interact. Active = false discovery rate below 0.05 (one-sided t-test) in at least one culture. Nearly all pairs are not hits, and differences among them are mostly noise (correlation between cultures about 0.3); most hits were seen in one culture only. Human sequences are the Swiss-Prot entries looked up by gene name; the clone may be another isoform. NSP2 values were corrected by the authors for a growth advantage. Listed are human proteins with a hit and a random twelfth of the others.

Each substance was assayed on SARS-CoV-2 ORF9B (assay: yeast fitness gain over the viral ORF with no human partner (scaled fitness); higher = more likely to interact).
Experimental: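 Split mouse DHFR complementation in pooled diploid yeast: human ORFeome clones carry one fragment and viral ORFs the other; barcoded lineages compete in 1 µg/mL methotrexate and fitness is read by barcode sequencing in up to three cultures.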

Row | Substance | yeast fitness gain
1 | HAUS7, Q99871 | inactive: 0.112
2 | HSPB7, Q9UBY9 | inactive: -0.0735
3 | KPNA1, P52294 | inactive: -0.075
4 | MAGEA10, P43363 | inactive: 0.0154
5 | ZNF785, A8K8V0 | inactive: -0.0566
6 | IHH, Q14623 | inactive: 0.0453
7 | OR4C6, Q8NH72 | inactive: 0.279
8 | ZNF611, Q8N823 | inactive: 0.11
9 | RGS3, P49796 | inactive: -0.0291
10 | FAM136A, Q96C01 | inactive: -0.00259
11 | SRGAP1, Q7Z6B7 | inactive: -0.173
12 | EGR3, Q06889 | inactive: 0.039
13 | BHLHA15, Q7RTS1 | inactive: -0.00902
14 | HYDIN, Q4G0P3 | inactive: -0.0178
15 | MAFF, Q9ULX9 | inactive: -0.0601
16 | POLD2, P49005 | inactive: 0.0155
17 | RALYL, Q86SE5 | inactive: 0.0356
18 | MT2A, P02795 | inactive: -0.0122
19 | ZNF517, Q6ZMY9 | inactive: 0.0292

Row | Substance | yeast fitness gain
20 | OXCT1, P55809 | inactive: 0.0257
21 | MCM9, Q9NXL9 | inactive: -0.00359
22 | DESI2, Q9BSY9 | inactive: 0.0514
23 | ZFYVE26, Q68DK2 | inactive: -0.041
24 | PTCD1, O75127 | inactive: -0.00335
25 | BNIP3L, O60238 | inactive: -0.0847
26 | TET2, Q6N021 | inactive: 0.0785
27 | PRR14L, Q5THK1 | inactive: -0.00066
28 | IDH3B, O43837 | inactive: 0.0116
29 | TLK2, Q86UE8 | inactive: -0.0994
30 | KLF6, Q99612 | inactive: -0.109
31 | TLX3, O43711 | inactive: 0.033
32 | TIMM50, Q3ZCQ8 | inactive: 0.0524
33 | FAM19A3, Q7Z5A8 | inactive: 0.0391
34 | OR4D1, Q15615 | inactive: 0.019
35 | CABP5, Q9NP86 | inactive: 0.00328
36 | NDRG4, Q9ULP0 | inactive: 0.0359
37 | ZNF673, Q5JUW0 | inactive: 0.0149
